PubChem BioAssay AID624417 (National Center for Advancing Translational Sciences (NCATS), 2012)
Out of some 410,000 compounds screened, about 6,400 (1.6%) were called active. The inconclusive results got no clear call from the source; some entries with a clear call stand among them for comparison. Calls follow the shape of the dose curve; as a rule, active = well fitted inhibition curve with a large enough effect; inconclusive = small, poorly fitted or top-dose-only effect; inactive = no such curve, though single readings can be large or run the other way. Potencies of inconclusive entries are left out as doubtful fits.

Molecular target: Glucagon-like peptide 1 receptor (Homo sapiens) (UniProt P43220)
Assay: qHTS of GLP-1 Receptor Inverse Agonists (Inhibition Mode); also: nearly all actives have a fitted effect of over 55% in size
Details: HEK293 GLP-1R CRE-luciferase, luminescence, 24 h, GLP-1R form is constitutively active; series mostly up to 38.3 µM
Procedure, shortened: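 HEK293 cells stably co-expressing constitutively active GLP-1R and a cAMP-responsive luciferase reporter were seeded in DMEM with 10% Nu serum, given compounds after 12 h, and incubated 24 h at 37 deg C. Luminescence was then read.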
Potency is read from the fitted curve at half-maximal effect; tags tell the direction and shape of the fitted curve.

UniProt P43220, sequence (P43220 whole entry, looked up): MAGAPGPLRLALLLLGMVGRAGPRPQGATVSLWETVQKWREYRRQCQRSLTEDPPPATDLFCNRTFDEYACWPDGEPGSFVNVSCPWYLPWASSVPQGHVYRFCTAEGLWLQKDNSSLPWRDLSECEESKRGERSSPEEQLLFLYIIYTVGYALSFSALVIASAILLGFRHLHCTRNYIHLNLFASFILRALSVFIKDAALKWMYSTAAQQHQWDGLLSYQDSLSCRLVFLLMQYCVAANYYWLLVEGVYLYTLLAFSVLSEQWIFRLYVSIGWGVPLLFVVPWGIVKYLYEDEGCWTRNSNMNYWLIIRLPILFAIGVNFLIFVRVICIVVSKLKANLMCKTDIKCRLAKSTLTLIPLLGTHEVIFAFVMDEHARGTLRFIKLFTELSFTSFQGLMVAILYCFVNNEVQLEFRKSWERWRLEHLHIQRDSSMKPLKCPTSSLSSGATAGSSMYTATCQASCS

SMILES	Potency
O=S(=O)(Nc1ccccc1OC(F)F)c1ccc(S(=O)(=O)N2CCCC2)cc1	inconclusive [inhibitor, partial curve]
CCOC(=O)c1c(NC(=O)COc2ccccc2C#N)sc2c1CC(C)(C)NC2(C)C	inconclusive [inhibitor, partial curve, poor fit]
CSC(=NS(=O)(=O)c1ccc(C)cc1)SC	inconclusive [inhibitor, partial curve]
C[C@@H]1CN([C@@H](C)CO)C(=O)c2cc(NC(=O)c3ccccc3)ccc2O[C@@H](C)CCCCO[C@@H]1CN(C)Cc1ccc(C(F)(F)F)cc1	active: 11.2 µM
CCCCC1=CC2=C(c3ccco3)C(=O)C(C)(OC(=O)c3ccc(OC)cc3)C(=O)C2=CN1CC(C)C (stereo unspecified)	inactive
O=c1sc2ccccc2n1Cc1ccccc1	inconclusive [inhibitor, partial curve, poor fit]
COc1cc(C(=O)Nc2ccc3nc(SCc4ccc(C)cc4)sc3c2)cc(OC)c1OC	inconclusive [inhibitor, partial curve, poor fit]
CC(C)[C@@H]1COC(c2cccc(C3=N[C@H](C(C)C)CO3)c2)=N1	inconclusive [inhibitor, single point]
COc1cc(/C=C/C(=O)c2cccc([N+](=O)[O-])c2)cc(OC)c1OC	inconclusive [inhibitor, partial curve, poor fit]
CCC(C(=O)Nc1ccc(C(=O)N2CCCC2)cc1)c1ccccc1 (stereo unspecified)	inconclusive [inhibitor, partial curve, poor fit]
O=S1(=O)CC(N2CC=CC2)CN1Cc1cn(Cc2cccc(C(F)(F)F)c2)nn1 (stereo unspecified)	inactive
Cc1oc2ncnc(N3CCCCC3)c2c1C(=O)N1CCN(c2cccc(C(F)(F)F)c2)CC1	inconclusive [inhibitor, partial curve, poor fit]
COCCNC(=O)c1ccc(-c2csc(C)n2)cc1	inactive
CS(=O)(=O)C1=NSC2=NC(=O)/C(=C\c3cccn3-c3ccc(Cl)cc3)C(=N)N21	inconclusive [inhibitor, single point]
CCOc1ccc(NC(=O)C2CCCN(S(=O)(=O)c3cccc4nonc34)C2)cc1 (stereo unspecified)	inactive
Cc1ccc(Nc2c(-c3cccs3)nc3nc(C)cc(C)n23)cc1	inconclusive [inhibitor, single point]
Cc1noc(C)c1CN(C(=S)NC1CC2CCC1C2)c1ccccc1 (stereo unspecified)	inconclusive [inhibitor, partial curve, poor fit]
CCOc1ccccc1NC(=O)C(=O)NCCc1sc(-c2cccc(F)c2)nc1C	inactive
CN(CC(=O)Nc1cccc(F)c1)CC(=O)Nc1cccc(S(=O)(=O)N2CCCCCC2)c1	inconclusive [inhibitor, single point]
CCOC(=O)N1CCN(S(=O)(=O)c2ccc(OC)c(Cl)c2Cl)CC1	inconclusive [inhibitor, single point]
COc1cccc(-c2nn(Cc3ccccc3)cc2CO)c1	inactive

SMILES	Potency
CC(Sc1nn(-c2ccc(F)cc2)c(=S)s1)C(=O)c1c(N)n(C)c(=O)n(C)c1=O (stereo unspecified)	inconclusive [inhibitor, partial curve]
O=C(Nc1ccc(Cl)cn1)c1cccc(S(=O)(=O)N2CCCCC2)c1	inconclusive [inhibitor, single point]
COc1ccc(-c2cc(C(F)(F)F)nc(S(=O)(=O)CCCC(=O)Nc3cccc(O)c3)n2)cc1OC	inconclusive [inhibitor, single point]
COc1cc(CC(=O)Nc2nc(-c3ccc(F)c(F)c3)cs2)cc(OC)c1OC	inconclusive [inhibitor, partial curve, poor fit]
COc1ccccc1N1CCN(C(=O)c2oc3c(c2C)C(=O)CC(C)(C)C3)CC1	inconclusive [inhibitor, partial curve, poor fit]
Cc1cccc(C(O)(C(=O)NNc2ccc3ccccc3n2)c2cccc(C)c2)c1	active: 4.47 µM
COc1cc(NC(=O)c2cc(-c3cccs3)on2)cc(OC)c1OC	inconclusive [inhibitor, single point]
CCOc1ccc(S(=O)(=O)NCCc2sc3nc(-c4ccc(F)cc4)nn3c2C)cc1	inactive
CCOc1ccc(CCNC(=O)c2cn(CC)c3ccc(S(=O)(=O)N4CCc5ccccc5C4)cc3c2=O)cc1OCC	inactive
COC(=O)c1cc(=O)n(Cc2cccs2)c(=Nc2ccccc2)s1	inconclusive [inhibitor, partial curve, poor fit]
O=C(O)Cn1cnc2c(OCc3ccccc3)ncnc21	inactive
N#Cc1c(N2CCCCC2)nc(N)c2c(N)nc3c(c12)CC(c1ccccc1)O3 (stereo unspecified)	inconclusive [inhibitor, single point]
CC(C)Sc1oc(-c2cccs2)nc1S(=O)(=O)c1ccc(Cl)cc1	inconclusive [inhibitor, single point]
N#Cc1c(NC(NC(=O)c2ccco2)C(=O)c2ccccc2)sc2c1CCCC2 (stereo unspecified)	inactive
CCc1ccccc1N1C(=O)N(Cc2ccc(C#N)cc2)c2ccccc2S1(=O)=O	inactive
CSCCNC(=O)c1ccc2nc(C3CCCCC3)oc2c1	inconclusive [inhibitor, single point]
Cc1ccc(-n2c(SCC(=O)Nc3ccc4c(c3)OCO4)nnc2-c2ccoc2C)cc1	inconclusive [inhibitor, full curve, poor fit]
COc1ccc(Nc2cccc(Cl)c2)c(C(=O)O)c1	inconclusive [inhibitor, single point]
O=C1CCCCC1Sc1nnc(Cc2cccs2)n1CCc1ccccc1 (stereo unspecified)	inconclusive [inhibitor, single point]
CC(=O)c1c(C)[nH]c(C(=O)Nc2ccc(Cl)cc2)c1C	inconclusive [inhibitor, single point]
